Measurements published in paper PMC5349528, “Site-to-site interdomain communication may mediate different loss-of-function mechanisms in a cancer-associated NQO1 polymorphism” (Scientific Reports, 2017).

B1: NQO1 p.P187S, full-length (cancer-associated polymorphism c.C609T) (enzyme)
chain: not shown
notes: NAD(P)H:quinone oxidoreductase 1 (NQO1), full-length, natural polymorphic variant p.P187S; essentially an apo-protein as purified; also called NQO1 P187S; source: E. coli BL21 (DE3), purified
B2: Δ50-NQO1 WT (C-terminal truncated NQO1, lacking the last 50 residues) (domain or fragment)
chain: not shown
notes: lacks the last 50 residues (the C-terminal domain, CTD); also called Δ50-WT; source: E. coli BL21 (DE3), purified
B3: Δ50-NQO1 p.P187S (C-terminal truncated NQO1 p.P187S, lacking the last 50 residues) (domain or fragment)
chain: not shown
notes: lacks the last 50 residues (CTD); also called Δ50-p.P187S; source: E. coli BL21 (DE3), purified

Target: the molecule itself
Assay: SEC + other: dynamic light scattering; hydrodynamic behaviour of the purified variants in solution; dimers even at concentrations ≤1 μM; DLS with 10 μM protein (monomer units) in 50 mM HEPES-KOH pH 7.4 at 25 °C

| Protein | stoichiometry N |
| --- | --- |
| B1 | 2 |
| B2 | 2 |
| B3 | 2 |
